Test results: the supplement of paper PMC4967469
pIC50: −log10 of the molar value. IC50 is the fitted dose that halves viability relative to control wells, and lower means more sensitive; a limit (>, <) means that the fit lies beyond the doses tested. AUC, from the same fit, is the share of area under the viability curve across the 256-fold dose range; the more sensitive the line, the further below 1. For some assays here: The top dose, if marked as inferred, is not printed in the source and was worked back from the curve model. For some assays here: Where an entry number is given, a second screen of the drug exists; the two often differ.

Assays:
Test in all cases: Viability of human cancer cell lines after 72 h of drug (GDSC screen)
SB-505124 = compound: Cc1cccc(-c2[nH]c(C(C)(C)C)nc2-c2ccc3c(c2)OCO3)n1 [SB-505124]; details: top dose 10 µM; top dose inferred
Protocol: (§1)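 Human cancer cell lines in 384-well plates, medium with 10% serum, drug for 72 h over a 256-fold dose range (nine 2-fold or five 4-fold steps up to the top dose). Adherent lines were fixed and stained with the nucleic acid dye Syto60, suspension lines read with resazurin; signal relative to control wells, capped at 0 and 100%. One two-parameter sigmoid per drug and line, fitted in a mixed model over all curves with the slope shared within a line.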

GSK690693 = compound: CCn1c(-c2nonc2N)nc2c(C#CC(C)(C)O)ncc(OC[C@H]3CCCNC3)c21 [GSK690693]; details: top dose 10.24 µM; top dose inferred
Protocol: as §1

Tretinoin = compound: CC1=C(/C=C/C(C)=C/C=C/C(C)=C/C(=O)O)C(C)(C)CCC1 [Tretinoin]; details: top dose 10 µM; top dose inferred
Protocol: as §1

BX-795 = compound: O=C(NCCCNc1nc(Nc2cccc(NC(=O)N3CCCC3)c2)ncc1I)c1cccs1 [BX-795]; details: top dose 5 µM; top dose inferred
Protocol: as §1

PI-103 = compound: Oc1cccc(-c2nc(N3CCOCC3)c3oc4ncccc4c3n2)c1 [PI-103]; details: top dose 10.24 µM
Protocol: as §1

UNC0638 = compound: COc1cc2c(NC3CCN(C(C)C)CC3)nc(C3CCCCC3)nc2cc1OCCCN1CCCC1 [UNC0638]
Protocol: as §1

[1] = top dose 20 µM, screen: GDSC drug entry 1236, top dose inferred
[2] = top dose 40 µM, screen: GDSC drug entry 245

Row | Cell Line | AUC (SB-505124) | pIC50 (SB-505124) | AUC (GSK690693) | pIC50 (GSK690693) | AUC (Tretinoin) | pIC50 (Tretinoin) | AUC (BX-795) | pIC50 (BX-795) | AUC (PI-103) | pIC50 (PI-103) | AUC (UNC0638; [1]) | pIC50 (UNC0638; [1]) | AUC (UNC0638; [2]) | pIC50 (UNC0638; [2])
1 | HT-3 (cervix, adherent) | 0.983 | < 5.00 | 0.954 | < 4.99 | 0.958 | < 5.00 | 0.899 | < 5.30 | 0.882 | < 4.99 | 0.871 | 4.71 | 0.797 | 4.72
2 | HT-115 (large intestine, adherent) | 0.991 | < 5.00 | 0.991 | < 4.99 | 0.991 | < 5.00 | 0.955 | < 5.30 | 0.991 | < 4.99 | 0.977 | < 4.70 | 0.991 | < 4.40
3 | HT-1080 (fibrosarcoma, adherent) | 0.978 | < 5.00 | 0.989 | < 4.99 | 0.985 | < 5.00 | 0.807 | 5.65 | 0.791 | 5.39 |  |  | 0.977 | < 4.40
4 | HT-1197 (bladder, adherent) | 0.977 | < 5.00 | 0.983 | < 4.99 | 0.945 | < 5.00 | 0.984 | < 5.30 | 0.861 | < 4.99 | 0.861 | < 4.70 | 0.882 | < 4.40
5 | HT-1376 (bladder, adherent) | 0.975 | < 5.00 | 0.985 | < 4.99 | 0.927 | < 5.00 | 0.904 | < 5.30 | 0.985 | < 4.99 | 0.983 | < 4.70 | 0.985 | < 4.40
6 | Hep 3B2_1-7 (liver, adherent) | 0.879 | < 5.00 | 0.987 | < 4.99 | 0.987 | < 5.00 | 0.84 | 5.46 | 0.925 | < 4.99 | 0.872 | 4.72 | 0.932 | < 4.40
7 | Hey (ovary, adherent) | 0.969 | < 5.00 | 0.984 | < 4.99 | 0.97 | < 5.00 | 0.735 | 5.85 | 0.51 | 6.17 | 0.67 | 5.44 | 0.716 | 5.01
8 | Hs633T (fibrosarcoma, adherent) | 0.969 | < 5.00 | 0.982 | < 4.99 | 0.882 | 5.14 | 0.592 | 6.27 | 0.701 | 5.68 | 0.987 | < 4.70 | 0.855 | 4.64
9 | Hs683 (glioma, adherent) | 0.972 | < 5.00 | 0.958 | < 4.99 | 0.984 | < 5.00 | 0.815 | 5.55 | 0.534 | 6.10 | 0.987 | < 4.70 | 0.843 | 4.54
10 | Hs746T (stomach, adherent) | 0.948 | < 5.00 | 0.807 | 5.12 | 0.956 | < 5.00 | 0.842 | < 5.30 | 0.413 | 6.47 | 0.853 | < 4.70 | 0.813 | 4.50
11 | Hs766T (pancreas, adherent) | 0.966 | < 5.00 | 0.982 | < 4.99 | 0.965 | < 5.00 | 0.891 | < 5.30 | 0.984 | < 4.99 | 0.969 | < 4.70 | 0.942 | < 4.40
12 | Hs939-T (melanoma, adherent) | 0.968 | < 5.00 | 0.986 | < 4.99 | 0.98 | < 5.00 | 0.949 | < 5.30 | 0.944 | < 4.99 | 0.814 | 4.91 | 0.863 | < 4.40
13 | Hs-578-T (breast, adherent) | 0.968 | < 5.00 | 0.987 | < 4.99 | 0.891 | < 5.00 | 0.825 | 5.49 | 0.987 | < 4.99 | 0.973 | < 4.70 | 0.986 | < 4.40
14 | HuCCT1 (biliary tract, adherent) | 0.982 | < 5.00 | 0.954 | < 4.99 | 0.961 | < 5.00 | 0.891 | < 5.30 | 0.562 | 6.01 | 0.811 | 4.92 | 0.741 | 4.87
15 | HuO9 (osteosarcoma, adherent) | 0.966 | < 5.00 | 0.982 | < 4.99 | 0.802 | 5.26 | 0.8 | 5.57 | 0.52 | 6.14 | 0.747 | 5.15 | 0.954 | < 4.40
16 | HuO-3N1 (osteosarcoma, adherent) | 0.977 | < 5.00 | 0.925 | < 4.99 | 0.803 | 5.16 | 0.854 | < 5.30 | 0.731 | 5.44 | 0.793 | 4.90 | 0.745 | 4.79
17 | HuP-T3 (pancreas, adherent) | 0.98 | < 5.00 | 0.972 | < 4.99 | 0.98 | < 5.00 | 0.912 | < 5.30 | 0.532 | 6.10 | 0.928 | < 4.70 | 0.795 | 4.63
18 | HuP-T4 (pancreas, adherent) | 0.983 | < 5.00 | 0.94 | < 4.99 | 0.935 | < 5.00 | 0.894 | < 5.30 | 0.892 | < 4.99 | 0.82 | 4.91 | 0.597 | 5.33
19 | IGR-1 (melanoma, adherent) | 0.935 | < 5.00 | 0.99 | < 4.99 | 0.978 | < 5.00 | 0.891 | 5.34 | 0.966 | < 4.99 | 0.829 | 4.98 | 0.649 | 5.21
20 | IGR-37 (melanoma, adherent) | 0.927 | < 5.00 | 0.989 | < 4.99 | 0.706 | 5.65 | 0.825 | 5.58 | 0.988 | < 4.99 | 0.828 | 4.96 | 0.852 | 4.57
